# A collection of fitness landscapes (doi:10.1126/science.1257360)
# The other results are listed elsewhere or left out.
# B1: PhoQ; a variant is named by its letters at X, in order, P23837 (parent)
# chain: MKKLLRLFFPLSLRVRFLLATAAVVLVLSLAYGMVALIGYSVSFDKTTFRLLRGESNLFYTLAKWENNKLHVELPENIDKQSPTMTLIYDENGQLLWAQRDVPWLMKMIQPDWLKSNGFHEIEADVNDTSLLLSGDHSIQQQLQEVREDDDDAEMTHSVAVNVYPATSRMPKLTIVVVDTIPVELKSSYMVWSWFIYVLSANLLLVIPLLWVAAWWSLRPIEALAKEVRELEEHNRELLNPATTRELTSLVRNLNRLLKSERERYDKYRTTLTDLTHSLKTPLXXLQXXLRSLRSEKMSVSDAEPVMLEQISRISQQIGYYLHRASMRGGTLLSRELHPVAPLLDNLTSALNKVYQRKGVNISLDISPEISFVGEQNDFVEVMGNVLDNACKYCLEFVEISARQTDEHLYIVVEDDGPGIPLSKREVIFDRGQRVDTLRPGQGVGLAVAREITEQYEGKIVAGESMLGGARMEVIFGRQHSAPKDE
# Variants of: B1
# Assay: enrichment ratio after two sorts for PhoP signalling (ratio (wild type AVST 3.29)); higher = more functional
# Settings: with PhoP (E. coli)
row,Variant,enrichment ratio
1,ALRL,≤ 0.25
2,AYWK,≤ 0.25
3,IDEV,≤ 0.25
4,LMSK,≤ 0.25
5,GRPL,≤ 0.25
6,TLAS,3.83
7,YMTD,≤ 0.25
8,KTLF,≤ 0.25
9,RKPA,≤ 0.25
10,HLDL,≤ 0.25
11,KFMY,≤ 0.25
12,TDGQ,≤ 0.25
13,LHPD,≤ 0.25
14,RNQK,≤ 0.25
15,QHCG,≤ 0.25
16,MKPK,≤ 0.25
17,HAEF,≤ 0.25
18,GWNA,≤ 0.25
19,MCMY,≤ 0.25
20,YDDW,≤ 0.25
21,KTYA,≤ 0.25

row,Variant,enrichment ratio
1,WDAA,≤ 0.25
2,TTNG,1.71
3,AHGH,≤ 0.25
4,DRIF,≤ 0.25
5,CFSY,≤ 0.25
6,IHIG,≤ 0.25
7,WTFY,≤ 0.25
8,KEFI,≤ 0.25
9,PGAC,≤ 0.25
10,ELYY,≤ 0.25
11,SAAC,1.38
12,HALA,≤ 0.25
13,FGGS,≤ 0.25
14,SAAH,9.48
15,VVVW,≤ 0.25
16,STIF,4.5
17,FREK,≤ 0.25
18,YHKG,≤ 0.25
19,AKCV,3.07
20,NHNW,≤ 0.25
21,DWPG,≤ 0.25

row,Variant,enrichment ratio
1,MNME,≤ 0.25
2,AIFC,≤ 0.25
3,AFCV,≤ 0.25
4,KMAN,≤ 0.25
5,STDR,≤ 0.25
6,DCSP,≤ 0.25
7,PNVC,2.08
8,QPSF,≤ 0.25
9,AFLL,1.68
10,GHSA,≤ 0.25
11,FNNV,≤ 0.25
12,YNDN,≤ 0.25
13,VIHS,≤ 0.25
14,RSDW,≤ 0.25
15,VMNG,≤ 0.25
16,TKTL,16
17,EKLG,≤ 0.25
18,NLDI,≤ 0.25
19,PRRA,≤ 0.25
20,PWCS,≤ 0.25
21,YHCC,≤ 0.25

row,Variant,enrichment ratio
1,FAAG,≤ 0.25
2,MAEA,≤ 0.25
3,GVRF,≤ 0.25
4,IYCS,≤ 0.25
5,QFDL,≤ 0.25
6,DHCG,≤ 0.25
7,NKMG,≤ 0.25
8,HTKE,≤ 0.25
9,DLAL,≤ 0.25
10,HQLR,≤ 0.25
11,FAHQ,≤ 0.25
12,PVQP,≤ 0.25
13,NRFG,≤ 0.25
14,NHDD,≤ 0.25
15,SIEN,≤ 0.25
16,AVCN,6
17,GHIQ,≤ 0.25
18,REWT,≤ 0.25
19,TLPY,≤ 0.25
20,YACA,≤ 0.25
21,KYDI,≤ 0.25
